Over roughly 1,400 sequences, “thermal melting temperature (Tm) of peptide-HLA complex” has its median near 60; the lowest 2% begin near 45. Some of the results follow.
Each sequence was assayed against HLA-B*07:02 (assay: thermal melting temperature (Tm) of peptide-HLA complex; higher = more thermostable pHLA complex). Details: C1R-B*07:02.
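Further: cell lysates heated 10 min at 37–73 °C, remaining pHLA pulled down with pan-class I antibody, peptides quantified by DIA-MS versus 37 °C, Tm where half the complex is lost.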

| Sequence | thermal melting temperature |
| --- | --- |
| TPLGTRSGL | 55.6 °C |
| HPYPPGPGVAL | 55.4 °C |
| APSGTRVVQVL | 41.4 °C |
| GPLFRNSQL | 59.9 °C |
| FIRVSGSEL | 61.4 °C |
| HPVVSSVPL | 57.8 °C |
| RPQTGLSFL | 61.7 °C |
| LPRFFGTAV | 45.7 °C |
| SPNSQALIL | 61.7 °C |
| KPVYPGQTL | 60 °C |
| TPSPIIQQL | 60.1 °C |
| IPRSITVLVE | 61.2 °C |
| IPKLPAVSF | 63.1 °C |
| WVRPDLGEL | 60.4 °C |
| LPAWPHRGL | 60.3 °C |
| IPLSGRNPL | 62.1 °C |
| IPQRPYMSL | 58.9 °C |
| KIRNFVVVF | 60.9 °C |
| KPRTVFSDYL | 58.3 °C |

| Sequence | thermal melting temperature |
| --- | --- |
| RPFHGWTSL | 56.5 °C |
| RPFTRHQSF | 53 °C |
| VPRVPTHTL | 62.6 °C |
| IPRSITVLV | 62.4 °C |
| LPQPNRTSSVL | 52.8 °C |
| APIDRVGQT | 62.9 °C |
| LPSKPSSTL | 58.1 °C |
| LPRKAGVFSDL | 56.3 °C |
| RVQKIRPSI | 56.7 °C |
| SPRGAGWLF | 63.6 °C |
| SPSSKYVKL | 56.3 °C |
| PYPRPIHL | 60.3 °C |
| DPMPAAKRYPL | 54.2 °C |
| SPVGRTLRV | 52.8 °C |
| QPRNPLEEL | 58.4 °C |
| KPVSLGQAL | 60.5 °C |
| APWSGRFYSL | 61.1 °C |
| APSGGRLLSA | 60.1 °C |
| RPYAAGGKKL | 57.8 °C |

| Sequence | thermal melting temperature |
| --- | --- |
| NPDIMRQTL | 51.9 °C |
| APKPSSRPSL | 54.5 °C |
| EPRSGEQVPL | 55.2 °C |
| IPTKKSQVF | 58.9 °C |
| SPREMVAQFL | 59.1 °C |
| LPMGALPQGPM | 56.6 °C |
| AASKERSGVSL | 62.6 °C |
| TPHLRNLAV | 60 °C |
| RPQASALEL | 59.5 °C |
| MPFRGYAVL | 60.3 °C |
| IPGGLRAAT | 57.8 °C |
| APKRPPSAFF | 62 °C |
| LPDIKVLTL | 56.7 °C |
| LPRSINTDTL | 58.5 °C |
| KPVNPSPLSQL | 58.9 °C |
| SLNSLRSSL | 58.5 °C |
| TPMPPISSV | 63 °C |
| QPRLSSILF | 61.5 °C |

Reference: the supplement of paper PMC7726561
